Assay results published in PubChem BioAssay AID1347417 (National Center for Advancing Translational Sciences (NCATS), 2020).
Screen size: about 120,000 compounds; about 5,300 (4.4%) were called active. Inconclusive results, whose numbers are uncertain, are shown with a selection of clear calls. Calls come from the whole dose curve; as a rule, active = well fitted inhibition curve with a large enough effect; inconclusive = small, poorly fitted or top-dose-only effect; inactive = no such curve, though single readings can be large or run the other way. Where the call is inconclusive, the potency comes from a doubtful curve fit.

assay: qHTS Primary assay for Inhibitors of Plasmodium falciparum Dd2 growth in vitro; note: nearly all actives have a fitted effect of over 65% in size; conditions: P. falciparum Dd2 growth, SYBR Green, 72 h; series mostly up to 28.9 µM
Method in brief: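 Infected erythrocytes (Dd2, 0.3% parasitemia, 2.5% hematocrit final) are added to compound in RPMI-1640/Albumax II medium, grown 72 h at 37C in low oxygen, then lysed with saponin/Triton-X containing SYBR Green and read by fluorescence.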
Potency is the fitted concentration of half-maximal effect; tags give direction and shape of the fitted curve.

SMILES	Potency
COCCn1cnnc1C(C)Nc1nc(-c2cccnc2)nc2c1CNC2 (stereo not drawn)	inactive
COCCC1(NC(=O)c2ccccc2)CCN(Cc2ccc3[nH]ccc3c2)CC1	inconclusive: 10 µM [inhibitor, partial curve, poor fit]
O=C(NCCc1ccc(Cl)cc1)c1cc(-c2ccccc2)n[nH]1	inconclusive: 17.8 µM [inhibitor, single point]
Cc1ccc(Sc2ccc(N3CCCC(C(=O)Nc4ccc(Br)cc4)C3)nn2)cc1 (stereo not drawn)	inconclusive: 2.82 µM [inhibitor, partial curve]
CCn1c(CO)nnc1C1CC(NC(=O)Cc2csc(C(C)=O)c2)C1 (stereo not drawn)	inactive
Cc1cc(C)n(Cc2ccc(C(=O)N3CCC4(CC3)CCC(O)(CN(C)C)CC4)o2)n1	inconclusive: 0.794 µM [inhibitor, partial curve, poor fit]
O=C1Nc2ccccc2OCC12CCN(Cc1ccc(OC(F)(F)F)cc1)CC2	inconclusive: 7.94 µM [inhibitor, partial curve, poor fit]
COCc1cc(CC2(NCCC(C)C)COC2)no1	inconclusive: 0.562 µM [inhibitor, partial curve, poor fit]
O=C1Nc2ccccc2CNC12CCN(Cc1ccc(C(F)(F)F)cc1)CC2	inconclusive: 8.91 µM [inhibitor, single point]
CCCc1ccc2oc(C(=O)N(CC)Cc3ccncc3)c(C)c2c1	inconclusive: 17.8 µM [inhibitor, single point]
O=C(Nc1ccc(Cl)cc1)c1ccc2oc(=O)n(Cc3ccccc3)c2c1	inconclusive: 12.6 µM [inhibitor, partial curve, poor fit]
O=C1NCc2ccccc2CC12CCN(CCCc1ccccc1)CC2	inconclusive: 7.94 µM [inhibitor, single point]
CCS[C@H]1CCN2C(=O)c3cc(-c4ccc(F)cc4F)ccc3NC(=O)[C@H]12	inconclusive: 22.4 µM [inhibitor, single point]
COc1ccc(Br)c2c1-c1nc(NC(=O)c3ccc(F)cc3)sc1C2	active: 2.82 µM
CCOC(=O)N1CCC(NC(=O)c2ccc3c(c2)N(Cc2ccccc2)C(=O)c2ccccc2S3(=O)=O)CC1	inconclusive: 14.1 µM [inhibitor, single point]
COc1cc2c(cc1OC)C(COc1ccc3c(C)cc(=O)oc3c1)N(C(=O)c1ccc(C)cc1)CC2 (stereo not drawn)	active: 11.2 µM
O=C(c1ccccc1F)N1CCC2(CC1)N=C(c1ccc(Cl)cc1)NO2	inactive
CO[C@H]1C(=O)N(C2CCN(S(=O)(=O)Cc3ccccc3)CC2)[C@H]1c1ccncc1	inactive
